# Results from PubChem BioAssay AID434955 (Southern Research Specialized Biocontainment Screening …, 2010).
# This is one part of the list. The main result of the screen is listed elsewhere. These columns were measured beside it and carry no call. Most of these compounds were active or inconclusive in the main read-out, so they are no random draw.
# Assay: beta-lactam sensitization of Mtb H37Rv, H37Rv (AID 434955);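 also: growth measured after seven days incubation then overnight dye step; 0% = bacteria only wells and 100% = bacteria with antibiotic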
# Settings: M. tuberculosis H37Rv growth with meropenem, percent inhibition; measured here: primary screen without meropenem; at 25 µM
row,Structure (SMILES),inhibition [%]
1,O=C(Nc1nc(-c2ccc(F)c(F)c2)cs1)c1cnccn1,-0.42
2,Cc1ccccc1Nc1nnc(SCC(=O)NC(=O)Nc2ccc3c(c2)OCCO3)s1,31.3
3,O=C1CC(SC(=Nc2ccccc2)Nc2ccccc2)C(=O)N1c1ccc(Cl)c(Cl)c1 (stereo unspecified),-1.11
4,O=C1C=C(N2CCN(C3=CC(=O)CCC3)CC2)CCC1,0.43
5,COC(=O)CSc1nnc(-c2cccnc2)o1,-7.67
6,CC(C)N=C(NS(=O)(=O)c1cccs1)c1ccccc1,1.88
7,N#Cc1ccc(COC(=O)CCc2c[nH]c3ccccc23)cc1,94.1
8,Cn1cccc1/C=C1/C(=O)NC(=O)N(Cc2ccc(F)cc2)C1=O,11.8
9,CCN(CC)C(=O)c1ccc(NC(=S)NC(=O)CCc2ccccc2)cc1,85.9
10,O=S(=O)(c1ccc(-c2cn3ccccc3n2)cc1)N1CCOCC1,-6.21
11,CC(C)N1CCc2c(sc(NC(=O)c3cc(-c4cccs4)nc4ccccc34)c2C(N)=O)C1,32.2
12,COc1ccc2cc(C3=CCCCC3)ncc2c1,27.6
13,Cc1onc(-c2ccccc2Cl)c1C(=O)Nc1ccc(-c2cn3cccnc3n2)cc1,-4.7
14,O=C(NCc1cccc(Cl)c1)c1cnccn1,-2.82
15,Cc1ccc(C)n1-c1nnc(N2CCC(C(=O)N3CCN(C)CC3)CC2)s1,-8.85
16,COc1cccc(C(=O)Nc2ccc3c(cc2=O)[C@@H](NC(C)=O)CCc2cc(OC)c(OC)c(OC)c2-3)c1,39
17,COc1ccc(CC(=O)NNC(=O)c2cc(C)[nH]n2)cc1,-0.79
18,CC(=O)Nc1ccc(S(=O)(=O)N2CCN=C2SCc2cccc(C)c2)cc1,5.97
19,Cc1ccc2nc(NC(=O)C3CCN(c4ncnc5sc(C)c(C)c45)CC3)sc2c1,6.48
20,COc1ccc(-c2cc(C(=O)N3CCN(S(=O)(=O)c4ccccc4)CC3)[nH]n2)cc1,-9.05
21,CCCCn1c(SCC(=O)Nc2cc(C)on2)nnc1-c1cccnc1,-2.44
22,CC(=O)c1ccc(OCCCC(=O)N2CCN(S(=O)(=O)c3cccs3)CC2)cc1,6.75

row,Structure (SMILES),inhibition [%]
1,Cc1ccnc(-n2c(C)cc(/C=C3\C(=O)NC(=S)N(C)C3=O)c2C)c1,-14.2
2,CCOC(=O)c1cc(-c2ccccc2)nc2ccc(C)cc12,44.3
3,CCOC(=O)C1CCN(c2cc(C)nc3cc(-c4cccc(F)c4)nn23)CC1,-4.68
4,Cn1c(=O)c2c(nc(NCC3CCCC(CN)C3)n2Cc2ccc(Cl)cc2Cl)n(C)c1=O (stereo unspecified),4.91
5,COc1ccc(C)cc1-n1c(SCC(=O)NCC2CCCO2)nc2c([nH]c3ccccc32)c1=O (stereo unspecified),-1.41
6,O=C(NCc1ccc2c(c1)OCO2)c1cc(COc2c(F)cccc2F)on1,2.86
7,CCc1c(C(=O)NCc2ccc3c(c2)OCO3)[nH]c(C)c1C(C)=O,1.22
8,COc1cccc(-c2cc(C(=O)N/N=C/c3ccco3)c3ccccc3n2)c1,12.7
9,N#Cc1c(-c2cccs2)cc(-c2ccccn2)nc1N,42
10,CC(=O)Nc1ccc(S(=O)(=O)N2CCN=C2SCc2ccc(C)cc2)cc1,9.48
11,CSc1ccccc1NC(=O)c1c(Br)cnn1C,22.9
12,CCN1C(=O)NC(=O)/C(=C\c2cn(CC(=O)N3CCCCC3C)c3ccccc23)C1=O (stereo unspecified),3.41
13,O=C(C1CC(c2ccc(F)cc2)=NO1)N1CCCCC1 (stereo unspecified),-10.7
14,COc1cc(-n2c(C)nc3cc(C(=O)NCC4CCCO4)ccc32)cc(OC)c1OC (stereo unspecified),-7
15,CCn1cc(C(=O)NC2CCCc3c2cnn3-c2cccc(C)c2C)cn1 (stereo unspecified),-3.59
16,CCn1c2ccccc2c2cc(/C=N/NC(=O)c3cccc(C)c3)ccc21,-6.93
17,COc1ccc(NC(=O)CSc2ccc3nnc(-c4ccccn4)n3n2)c(OC)c1,5.64
18,O=C(CSc1nnc(-c2ccco2)n1-c1ccccc1)NCc1ccc2c(c1)OCO2,-1.79
19,CCOc1cccc(/C=N/Nc2nc(N3CCCC3)nc(N3CCCC3)n2)c1O,26.6
20,O=C1C2C3C=CC(C3)C2C(=O)N1c1cccc(N2C(=O)C3C4C=CC(C4)C3C2=O)n1 (stereo unspecified),1.59
21,CCn1cc(S(=O)(=O)c2ccc(OC)cc2)c(=O)c2cc(F)c(N3CCN(C)CC3)cc21,-0.41
22,CCCc1cc(N2CCOCC2)n2nc(C)c(-c3ccccc3)c2n1,-0.6

row,Structure (SMILES),inhibition [%]
1,CC12CCCC[C@@H]1CCC1C2CCC2(C)C1CC[C@@]2(O)CNCCO (stereo partly specified),40.9
2,Cc1cc(C)cc(OCC(=O)OCC(=O)c2cc(C)n(C3CC3)c2C)c1,54.3
3,C=C(C)Cn1c(SCC(=O)N/N=C/c2c(O)ccc3ccccc23)nc2ccccc2c1=O,-0.8
4,Cc1ccc(N=Cc2c(O)ccc3ccccc23)cc1F,12.8
5,CCN(CC)S(=O)(=O)c1ccc2[nH]c(=O)cc(C(=O)Nc3ccccc3N3CCCC3)c2c1,3.07
6,CC1Oc2ccccc2N(CC(=O)N(Cc2ccccc2)Cc2ccccn2)C1=O (stereo unspecified),2.63
7,O=C(Nc1ccccc1F)C1CCCN(S(=O)(=O)c2cccc3cccnc23)C1 (stereo unspecified),-7.93
8,O=C(C1=C[C@H](c2ccc(Br)cc2)C[C@H](OCCCCO)O1)N1CCN(Cc2ccc3c(c2)OCO3)CC1,37
9,Cc1cccc(CNC(=O)C2CCC(=O)N(C3CCCCCC3)C2)c1 (stereo unspecified),10.8
10,Cc1ccc(C)c(S(=O)(=O)NC(C)C(=O)NCc2ccccn2)c1 (stereo unspecified),7.68
11,Nc1ccc(N=Nc2ccccc2O)c(N)c1,11.2
12,O=C(NC1CCCCC1)C1CCN(c2nccs2)CC1,39
13,Cc1ccc(NC(=O)c2nc[nH]c2C(=O)NCc2ccccc2)cc1,50.8
14,CNC(C)C(=O)NC(C(=O)N1CCCC1C(=O)NNc1ccccc1)C(C)C (stereo unspecified),72.1
15,Cc1ccc(C)c(Cn2nnc3c(=O)[nH]c(C(=O)NCc4ccco4)nc32)c1,-0.21
16,C=CCn1cc(CN2CCC(C(=O)Nc3cccc(-c4cccc(F)c4)c3)CC2)c(C)n1,6.05
17,COc1ccccc1-c1cc(C(=O)N/N=C/c2ccoc2)c2ccccc2n1,3.93
18,Cc1ccc2occ(/C=C/C(=O)c3ccccc3O)c(=O)c2c1,14.2
19,COc1cc(Cl)ccc1OCc1cc(C(=O)N2CCCC(OC)C2)no1 (stereo unspecified),3.36
20,Cc1ccccc1N(Cc1cc(=O)[nH]c2ccccc12)C(=O)CCl,-3.84
21,CCN(CCn1cccn1)C(=O)CC1C(=O)NCCN1CCc1ccccc1 (stereo unspecified),-0.61
22,CN1C2CCC1CC(OC(=O)c1ccc([N+](=O)[O-])cc1)C2 (stereo unspecified),-3.6
